Measurements as given in the supplement of paper PMC3334620.
The full ranking holds about 33,000 sequences; the median of “E-score (-0.5 to 0.5)” is about -0.01, and the highest 2% start at about 0.26. The list shows a part of the results.

Each sequence was assayed against Ste12 (UniProt P13574) (assay: PBM E-score (8-mer binding enrichment) (E-score (-0.5 to 0.5)); higher = stronger / more preferred TF binding; most listed sequences are background and not binding sites). Conditions: protein concentration: 200 nM; construct: GST-DNA-binding domain.
Method in brief: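 Detection of bound protein used fluorescent anti-GST, with scans normalised by masliner. The proteins were GST-tagged yeast transcription factors applied at about 100-200 nM to universal all-10-mer Agilent arrays made double-stranded by primer extension. Each ungapped eight-base word, pooled with its reverse complement, was scored with an E-score from the Universal PBM Analysis Suite.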

Row | Sequence | PBM E-score
1 | ACACTTAG | 0.0589
2 | AGCGGGAC | -0.133
3 | GATTACGA | 0.149
4 | GAAAGCAC | 0.06
5 | ATGAATCG | 0.072
6 | AACCGCCC | 0.00313
7 | CACAATGC | 0.00421
8 | GCGTCGTA | 0.057
9 | CCTGCAGA | 0.0997
10 | GCATAACC | -0.0119
11 | ATACCCGG | 0.104
12 | ATGGAAAC | 0.263
13 | CACTGGGG | -0.175
14 | CAGACAAA | 0.212
15 | GTTTGTAA | 0.199
16 | CCCAGATC | -0.14
17 | ACATTCTG | -0.0747
18 | CAAGAGTC | -0.28
19 | CTGGCCTA | -0.127
20 | GAGCAACA | -0.138
21 | AGTTACTA | 0.00299
22 | CGATCAAG | -0.15
23 | GACTAGGA | -0.047
24 | CTATGACC | -0.14
25 | TCGGACCA | -0.137

Row | Sequence | PBM E-score
26 | AACTATCG | -0.0459
27 | GCGAGATA | 0.175
28 | ACGAGAGC | -0.137
29 | AGGGCTAA | -0.0946
30 | ACTAGCTA | -0.0308
31 | CACGGCTA | -0.188
32 | CGCTTCAA | 0.038
33 | CCTTTCGA | 0.112
34 | GCGCTTTA | -0.206
35 | ACTACACG | 0.0288
36 | ATCTTTTG | 0.123
37 | AGTTCTTC | 0.14
38 | AATAGTAA | 0.156
39 | AGCGGGGG | -0.26
40 | CAGGCGAA | -0.139
41 | TACTCTAA | 0.0561
42 | CATTCGTA | -0.0838
43 | AGGGGTCA | -0.0707
44 | ACATCATG | 0.0856
45 | GCTGACAC | 0.0351
46 | AAGTTGCC | -0.15
47 | ATGGCCCG | -0.0237
48 | AAGGCTCA | -0.132
49 | AACGCGCT | 0.0874
50 | CCACTGGC | -0.0254

Row | Sequence | PBM E-score
51 | GCAAATTA | 0.2
52 | CGAAGACA | -0.0403
53 | AGGCACTG | -0.147
54 | CCTGCAAG | -0.168
55 | TGACGGAA | 0.0905
56 | AGAGCCCT | -0.118
57 | ACTGGGAG | -0.171
58 | CGGCGAGC | -0.107
59 | GCGATAAA | 0.0353
60 | CCATACGG | -0.142
61 | TTAGGCAA | -0.127
62 | ACAACACG | -0.0902
63 | AACATAAA | 0.249
64 | GGGGACGA | -0.173
65 | AGATTTAT | 0.234
66 | AATTACAA | 0.118
67 | AGACACGA | 0.0828
68 | ATCTACCG | 0.0211
69 | TGACTGAA | 0.0244
70 | AACTAGAG | 0.105
71 | CGCACACC | 0.0291
72 | ACGGCTTA | 0.00641
73 | CATCTGGG | -0.0158
74 | GCTTAGCC | -0.115
75 | GGGATGCA | -0.0678

Row | Sequence | PBM E-score
76 | ACAATCTA | 0.0392
77 | CCGAGTGA | -0.0607
78 | GATACTCA | 0.0586
79 | GACTCGCC | -0.104
80 | GGGAGCGA | -0.0631
81 | GATCTAAA | 0.157
82 | ATCACTCA | -0.0868
83 | ACTAGAGG | -0.134
84 | AGAAGGCA | -0.121
85 | CCGAGCAC | 0.01
86 | GCATTTAA | 0.12
87 | CCATCGCG | 0.023
88 | GAAGTCCA | -0.208
89 | GGCGAAAA | 0.234
90 | AGCAGAGA | -0.0271
91 | ACGAAATG | 0.0753
92 | AGCGCCGC | 3e-05
93 | CACCCGAA | 0.223
94 | AATGCCGA | 0.0021
95 | GTCGTCGA | -0.17
96 | CTGCCGCA | 0.0784
97 | CTATAATC | 0.0522
98 | ACGCTGTA | 0.00742
99 | CTTTAGAA | 0.0701
100 | ACGTAGGA | -0.131

Row | Sequence | PBM E-score
101 | GACTAGCA | -0.106
102 | AATCGAAT | 0.222
103 | GCCCAGGA | 0.0726
104 | TAACTATA | 0.046
105 | GCGGCAGC | 0.00517
106 | TAGCGCAA | 0.144
107 | GCGTATTA | -0.0112
108 | GTAGCGCA | 0.115
109 | CCGGCTAA | 0.0663
110 | CTGGGACA | -0.0584
111 | AACGCACT | -0.0209
112 | AATTTGTG | 0.169
113 | AAGGACAA | 0.0794
114 | AAACTTCT | 0.088
115 | GGCAAGCC | -0.0158
116 | CCTAACAC | -0.0384
117 | CGGCTTAG | -0.0725
118 | ACTCCCTA | -0.148
119 | ATTAGTCG | 0.148
120 | CACATCAG | 0.00816
121 | GGGTAGTA | -0.0859
122 | AGTACGCC | -0.21
123 | ACGGTCTC | -0.101
124 | GATGCCTA | -0.26
125 | GCGGTGCC | -0.0915

Row | Sequence | PBM E-score
126 | GACTTACA | -0.195
127 | CACTAGTA | -0.117
128 | CTGCTGTC | -0.0137
129 | ATCGAGTC | 0.0308
130 | AACAGATA | 0.13
131 | ACCTATAA | 0.0688
132 | CCCGCTAA | -0.0154
133 | ACCAGGCC | -0.0799
134 | TAAATCGA | 0.145
135 | CAGTGGGG | -0.118
136 | GAGGAAAC | 0.106
137 | GACTTTCC | 0.0228
138 | AGACGATG | -0.0498
139 | CATGTAGA | -0.0121
140 | GCTGGATA | 0.0153
141 | ATCTGCAC | -0.118
142 | AGCGCGGG | 0.0421
143 | CCGAAGCA | -0.114
144 | CAACATTG | 0.201
145 | CACCACAC | -0.09
146 | CGTGACAG | -0.00929
147 | ATCCGACA | -0.105
148 | ATTAAGAG | 0.0211
149 | ACCAGCCC | -0.0943
150 | AACCGTCC | 0.0376

Row | Sequence | PBM E-score
151 | AGTTTCGC | 0.184
152 | ACCTTAAC | 0.138
153 | GGTGTATA | -0.168
154 | GATGCCAC | -0.16
155 | AGACTCCG | -0.178
156 | CAAGCTAA | -0.147
157 | ACGCCAGA | 0.0478
158 | ACCCGACA | 0.0405
159 | CCTATATA | 0.0209
160 | CGATTGAC | 0.0755
161 | ATACGGGA | 0.0194
162 | CTTCCTGA | 0.0627
163 | AGCGTCCA | -0.26
164 | AATATTTG | 0.21
165 | CAACTTCG | 0.228
166 | AGGGGAGG | 0.348
167 | ATCCACAT | -0.0297
168 | AAACAGTG | 0.309
169 | CGCGGTGC | -0.204
170 | AATACTGG | 0.0598
171 | CCCAGCAC | -0.227
172 | CATACATC | -0.0613
